Among the data in PubChem BioAssay AID1346428 (National Center for Advancing Translational Sciences (NCATS), 2018) are activation values, retold here.

About 1,200 (2.5%) of roughly 48,000 compounds were called active. About 2% were inconclusive and are not listed.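 The calls were made as follows: active = activation of at least 60% and not above a set upper limit (about 1 call in 100 departs from these limits); inconclusive = activation of 40% to 60%, or above that upper limit; inactive = activation under 40%.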 Some of the results follow.

UniProt O75388, sequence (O75388 whole entry, looked up, the tested form may be a part): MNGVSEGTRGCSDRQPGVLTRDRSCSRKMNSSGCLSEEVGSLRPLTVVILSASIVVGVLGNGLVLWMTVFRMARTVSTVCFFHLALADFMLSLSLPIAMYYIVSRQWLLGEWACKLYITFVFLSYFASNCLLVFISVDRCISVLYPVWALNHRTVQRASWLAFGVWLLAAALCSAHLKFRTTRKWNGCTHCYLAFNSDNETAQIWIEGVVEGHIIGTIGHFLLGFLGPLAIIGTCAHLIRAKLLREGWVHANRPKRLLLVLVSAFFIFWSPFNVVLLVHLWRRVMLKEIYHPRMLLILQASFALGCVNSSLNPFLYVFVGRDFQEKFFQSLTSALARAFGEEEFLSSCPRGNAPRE

This test has as its target Probable G-protein coupled receptor 32 (Homo sapiens) (UniProt O75388). In words: qHTS for Agonists of Human Resolvin D1 Receptor DRV1. Also: 0% is about no effect. Particulars: CHO-K1 GPR32 beta-arrestin PathHunter luminescence, 90 min; at 76.9 µM; stronger effect = higher value; zero percent set by DMSO-only wells. In a few lines:
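Agonism was scored as beta-arrestin recruitment to ProLink-fused GPR32 in stably transfected CHO-K1 cells, giving a chemiluminescent beta-Gal signal; compounds were incubated 90 min at 37 °C.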
Background: qHTS replaces the single test concentration by a dilution series.
For `COc1cccc(C(=O)N2c3ccc(C)cc3C(C)(c3ccccc3)CC2(C)C)c1` (centres undefined), the activation is inactive: -80.8%.

Regarding `Cc1ccccc1C(=O)Nc1sc2c(c1C(=O)N1CCCCC1)CCC(C)C2` (centres undefined), the activation is inactive: -24.2%.

`Cc1ccc(CC(=O)Nc2ccc3c(c2)N(C)C(=O)c2ccccc2S3)cc1`: the activation was inactive: -10.1%.

With `Cc1ccc(-n2nc3c(N4CCCC(C(=O)NCc5ccc(Cl)cc5)C4)nnc(C)c3c2C)cc1` (centres undefined), the activation is inactive: 25.6%.

On to `COC(=O)c1ccc2c(c1)N(CC(=O)Nc1ccc(OC)c(Cl)c1)C(=O)c1ccccc1S2`, for which the activation is inactive: -4.73%.

Regarding `CCn1c(=O)c2sccc2n2c(CCCC(=O)N3CCN(c4cccc(Cl)c4)CC3)nnc12`, the activation is inactive: 5.21%.

In the case of `Cc1ccc(-c2nn3c(=O)cc(CN4CCN(C(=O)/C=C/c5ccccc5)CC4)nc3s2)cc1`, the activation was inactive: -9.78%.

Consider `CCOC(=O)c1ccc(NC(=O)C(Cc2ccccc2)N2Cc3ccccc3C2=O)cc1` (centres undefined), for which the activation is inactive: -7.82%.

Turning to `CCCOc1ccc(C(=O)Nc2ccc3oc(-c4cccc(Cl)c4Cl)nc3c2)cc1`, the activation was inactive: -6.54%.

Turning to `CCOC(=O)c1ccc(NC(=O)CSc2cn(CC(=O)N3CCCC3)c3ccccc23)cc1`, the activation is inactive: -13.3%.

In the case of `CCc1ccc(-c2cn3c(n2)sc2cc(C(=O)NCCC4=CCCCC4)ccc23)cc1`, the activation is inactive: -11.7%.

As for `CC(C)c1ccc(NC(=O)Cn2cc(S(=O)(=O)Cc3cccc(Cl)c3)c3ccccc32)cc1`, the activation is inactive: -6.52%.

As to `O=C(CCS(=O)(=O)c1nc(-c2cccs2)cc(C(F)(F)F)n1)Nc1cc(Br)ccc1O`, the activation was inactive: -13.1%.

As for `COc1ccc(C(=O)Nc2nc3n(n2)C(c2ccccc2)C=C(c2ccccc2)N3)cc1` (centres undefined), the activation is inactive: 12.6%.

Turning to `Cc1ccc(NC(=O)Cn2c(=O)n(Cc3nc(C)no3)c(=O)c3cc4c(cc32)OCO4)c(C)c1`, the activation was inactive: -7.19%.

Take `CCCn1c(SCc2nc(-c3ccccc3OCC)no2)nnc1-c1ccc(Cl)cc1`: the activation is inactive: -15.5%.

In the case of `CCOc1ccccc1C(=O)N(Cc1cc(OC)c(OC)c(OC)c1)c1ccccn1`, the activation was inactive: -4.21%.

Consider `N#Cc1nc(COc2cccc(Cl)c2)oc1NCCc1ccccc1`, for which the activation is inactive: 2.22%.

For `CC(C)c1ccc(NC(=O)CSc2nc(=O)n(Cc3ccccn3)c3c2CCC3)cc1`, the activation was inactive: -12.9%.

`Cc1c(C(=O)NN2CCCCC2)nn(-c2ccc(Cl)cc2Cl)c1-c1ccc(Cl)cc1`: the activation is inactive: -19.7%.

As to `CCN(CC)S(=O)(=O)c1ccc(NC(=O)[C@H](CCSC)N2Cc3ccccc3C2=O)cc1`, the activation was inactive: 7.99%.

Turning to `Cc1ccc(S(=O)(=O)c2nnn3c2nc(N2CCCCC2)c2sccc23)cc1`, the activation was inactive: -21.7%.

With `CCn1ccc2cc(S(=O)(=O)N3CCCN(C(=O)Nc4ccc(C)cc4)CC3)ccc21`, the activation is inactive: 22.1%.

With `Cc1cccc(Cn2c(-c3cccs3)nc3ccccc32)c1`, the activation was inactive: -9.05%.

On to `CCOc1ccc(Cn2c(CNS(=O)(=O)c3cccs3)nc3cccnc32)cc1`, for which the activation is inactive: -17.7%.

With `Cn1c(=O)c2c(nc(SCC(=O)Nc3ccc(F)cc3)n2Cc2ccc(Cl)cc2)n(C)c1=O`, the activation is inactive: 0.276%.

On to `Cc1cc(C)cc(N(C)S(=O)(=O)c2nnc(NC(=O)COc3ccc(Cl)cc3)s2)c1`, for which the activation was inactive: 22.6%.

For `CC(=O)c1cccc(NC(=O)CN2C(=O)CN(C)C(=O)c3ccccc32)c1`, the activation is inactive: -2.27%.

`CCc1nc(SCc2cc(=O)c3cc(F)ccc3[nH]2)n[nH]1`: the activation is inactive: 2.42%.

`Cc1ccc(N2CCN(c3cc(C)nc4c(-c5ccc(Cl)cc5)c(C)nn34)CC2C)cc1` (centres undefined): the activation is inactive: -2.08%.

As to `NC(=O)Cn1c(=O)n(-c2ccc(F)c(Cl)c2)c(=O)c2sc3ccccc3c21`, the activation is inactive: 2.74%.

`CCOc1ccc(NC(=O)c2ccc3c(c2)c(C)c(C)n3Cc2ccc(F)cc2)cc1`: the activation is inactive: -11.5%.

`Cc1cn2c(=O)c(S(=O)(=O)NC(C)c3ccccc3)c(C)nc2s1` (centres undefined): the activation is inactive: -7.39%.

For `Cc1ccc(NC(=O)Cn2ncc3c4ccccc4n(Cc4ccccc4)c3c2=O)cc1Cl`, the activation is inactive: -3.3%.

Turning to `COc1ccc(C(=O)Nc2nc3nc(C)c(Cl)c(=O)n3[nH]2)cc1`, the activation is inactive: 5.27%.

On to `Cc1oc(-c2ccccc2Cl)nc1CS(=O)(=O)CC(=O)NC(C)CCc1ccccc1` (centres undefined), for which the activation was inactive: 23.7%.

Regarding `COc1ccc(OC)c(NC(=O)C(NS(=O)(=O)c2ccc3c(c2)CCCC(=O)N3)C(C)C)c1` (centres undefined), the activation is inactive: 8.23%.

`COc1ccc(NC(=O)CC2C(=O)N(c3cccc(OC)c3)C(=O)N2Cc2cccnc2)cc1` (centres undefined): the activation is inactive: 0.223%.

With `Cc1ccc2nc(Cl)c3cc(C(=O)NC4CCCCC4)sc3c2c1`, the activation is inactive: -6.58%.

For `CN1CCc2nc3sc(C(=O)Nc4c(F)cccc4F)c(N)c3cc2C1`, the activation is inactive: 0.524%.

For `NS(=O)(=O)c1ccc(Cl)c(S(N)(=O)=O)c1`, the activation was inactive: 5.32%.

Turning to `CCOC(=O)c1ccc(NC(=O)c2nsc3ccccc23)cc1`, the activation was inactive: -27.7%.

`CCOC(=O)c1cc(S(=O)(=O)N2CCN(c3cc(Cl)ccc3C)CC2)[nH]n1`: the activation was inactive: -30.1%.

Regarding `CCOc1ccc(NC(=O)Cn2c(=O)c(CNc3ccc(OC)cc3)cc3ccc(OC)cc32)cc1`, the activation is inactive: 6.63%.

On to `Cc1ccc(-c2cnc(NCc3c(F)cccc3Cl)n2C)cc1`, for which the activation is inactive: -42.3%.

For the compound `Cc1cc(=O)n2nc(N3CCC(C(=O)NCc4ccccc4Cl)CC3)sc2n1`, the activation is inactive: -20.9%.

On to `Cc1nc(-c2cccc(S(=O)(=O)N3CCC(C(=O)NCc4ccccc4)CC3)c2)no1`, for which the activation was inactive: -14.3%.

In the case of `CCc1ccc(OCC(=O)Nc2c(C(=O)c3ccccc3)oc3ccccc23)cc1`, the activation was inactive: -20.3%.

For the compound `CCCN(C(=O)Cn1cnc2sc(C)c(S(=O)(=O)N3CCN(c4ncccn4)CC3)c2c1=O)c1cccc(C)c1`, the activation is inactive: -4.03%.

`Cc1ccccc1NC(=O)CCc1c(C)nc2c(c1C)c(=O)n(C)c(=O)n2C`: the activation is inactive: 5.53%.

Regarding `COc1ccc(NS(=O)(=O)c2ccc3c(c2)oc(=O)n3C)cc1Cl`, the activation was inactive: 8.51%.

Take `COc1ccc(OC)c(S(=O)(=O)Nc2ccc3[nH]c(=O)[nH]c3c2)c1`: the activation is inactive: -14%.

With `Cc1cccc(CN2C(=O)c3ccccc3S(=O)(=O)c3ccc(C(=O)N4CCCC4)cc32)c1`, the activation was inactive: -19.7%.

Regarding `Cc1ccc(C(=O)Nc2cc3cc(Cl)ccc3oc2=O)cc1`, the activation is active: 61.8%.

`Cc1ccc(-c2nc(CCNC(=O)C(=O)Nc3ccc(F)cc3F)cs2)cc1`: the activation was inactive: -8.78%.

In the case of `Cc1ccc2c(c1)N(CC(=O)NCCCN1CCCCC1)C(=O)c1cccnc1O2`, the activation is inactive: 1.31%.

Turning to `COc1ccccc1NCc1nnc2n1CCCCC2`, the activation was inactive: 25%.

As for `COc1ccccc1CNC(=O)CCCN1C(=O)CCn2nc(-c3cn(C)c4ccccc34)cc21`, the activation is inactive: 5.04%.

`Cc1ccc(-c2nc3sc(CCNC(=O)c4ccco4)c(C)n3n2)cc1`: the activation is active: 64.9%.

Consider `CC(C)C(=O)Nc1c(C(=O)N2CCN(c3ccccc3F)CC2)oc2ccccc12`, for which the activation is inactive: -17.5%.

Regarding `Fc1ccc(C(c2nnc(-c3ccccc3)o2)N2CCN(c3ccccc3)CC2)c(Cl)c1` (centres undefined), the activation was inactive: -25.7%.

In the case of `Cc1ccc(CSc2nc3ccncc3n2Cc2nc(-c3ccc(Cl)cc3)oc2C)cc1`, the activation was inactive: -8.97%.

As to `CCOc1ccc(S(=O)(=O)N(C(C)=O)c2ccc3oc(C)c(C(=O)OC)c3c2)cc1`, the activation was inactive: 14.6%.

Consider `COc1cc(Cl)c(C)cc1NC(=O)c1nn(-c2ccc(C)cc2)c(=O)n(C)c1=O`, for which the activation was inactive: 10.8%.

For `COc1cccc(NC(=O)CSc2c(C)cnc3c2c(=O)n(C)c(=O)n3C)c1`, the activation is inactive: -13.8%.

Turning to `CCCOC(=O)c1c(NC(=O)c2cc3nc(-c4ccc(OC)cc4)cc(C(F)(F)F)n3n2)sc2c1CCCC2`, the activation is inactive: 16%.

`CCOc1ccc(N2CC(NC(=O)c3cc4ccccc4o3)CC2=O)cc1` (centres undefined): the activation was inactive: -12.8%.

Take `Cc1ccc(C)c(NC(=O)Cn2c(-c3nonc3N)nc3ccccc32)c1`: the activation was inactive: -1.38%.

For `COc1ccc2oc(=O)c(C(=O)N3CCN(c4cc(Cl)ccc4Cl)CC3)cc2c1`, the activation was inactive: -12.1%.

As to `CCOC(=O)c1ccc(NC(=O)C(=O)NCCc2ccc(OC)cc2)cc1`, the activation is inactive: 26.3%.

For the compound `CCCC(=O)Nc1cccc(-c2nc3ncccc3o2)c1`, the activation was inactive: 9.51%.

Regarding `COc1ccccc1N1CCN(C(=O)c2cnn(C(C)(C)C)c2C2CCN(C(=O)OC(C)(C)C)CC2)CC1`, the activation was inactive: -18.8%.

Regarding `COc1ccc(N2CCN(C(=O)c3c(C)oc4nc(C)nc(N5CCCC5)c34)CC2)cc1`, the activation was inactive: -17.6%.

As to `Cc1ccc(N(C)S(=O)(=O)c2c(-c3ccccc3)csc2C(=O)O)cc1`, the activation is inactive: 10.3%.

Take `Cc1cc2nc(-c3cccc(NC(=O)COc4ccc(C(C)C)cc4)c3)oc2cc1C`: the activation was inactive: -6.15%.

Take `CCCCCCCCCCCCOCCOCCOCCOCCOCCOCCOCCOCCOCCO`: the activation is active: 99%.

Turning to `CS(=O)(=O)c1ccc(-c2cn3ccccc3n2)cc1`, the activation was inactive: 8.51%.

`COc1ccc(-c2nc(C)c(CCNC(=O)c3cccs3)s2)cc1`: the activation is inactive: 26%.

As for `Cc1ccccc1-c1nnc(SCC(=O)N2CCCc3ccccc32)o1`, the activation was inactive: -2.72%.

`CCCNC(=O)c1c(NC(=O)c2ccccc2F)sc2c1CCCCC2`: the activation is inactive: 8.5%.

`Cc1nc(-c2ccc(S(=O)(=O)Nc3ccc(OC(F)(F)F)cc3)cc2)co1`: the activation is active: 114%.

As to `CC(C)c1ccc(N2C(=O)CSC23C(=O)N(Cc2ccccc2F)c2ccccc23)cc1` (centres undefined), the activation is inactive: 2.6%.

Turning to `Cc1ccc(NC(=O)N2CCC(CN3CCCCCC3)CC2)c(Cl)c1`, the activation was inactive: -17.2%.

`COc1ccc(-c2nc(SCC(=O)Nc3ccc4c(c3)OCO4)c(-c3ccc(F)cc3)[nH]2)cc1OC`: the activation was inactive: 1.3%.
